Among all 410,000 compounds or so, about 6,400 (1.6%) were called active. Inconclusive means that the source gave no clear call. Such entries were picked first, then a sample of the others. Calls follow the shape of the dose curve; as a rule, active = well fitted inhibition curve with a large enough effect; inconclusive = small, poorly fitted or top-dose-only effect; inactive = no such curve, though single readings can be large or run the other way. Potencies of inconclusive entries are doubtful fits and often do not repeat.
What follows are compounds tested against Glucagon-like peptide 1 receptor (Homo sapiens) (UniProt P43220) (assay: qHTS of GLP-1 Receptor Inverse Agonists (Inhibition Mode)). Settings: HEK293 GLP-1R CRE-luciferase, luminescence, 24 h, GLP-1R form is constitutively active; activity change, negative = inhibition: at 38.3 µM (top of the series) unless noted.
In short: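 HEK293 cells stably co-expressing a cAMP-responsive luciferase reporter and constitutively active GLP-1R were seeded, incubated 12 h, then exposed to compounds for 24 h at 37 C. Luminescence was read 12 min after detection reagent; inverse agonists lower signal.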
% is scaled to controls: 0 for no effect and ±100 for the full control effect; potency is read from the fitted curve at half-maximal effect; tags tell the direction and shape of the fitted curve.
Also: nearly all actives have a fitted effect of over 55% in size.

Sequence of UniProt P43220 (P43220 whole entry, looked up): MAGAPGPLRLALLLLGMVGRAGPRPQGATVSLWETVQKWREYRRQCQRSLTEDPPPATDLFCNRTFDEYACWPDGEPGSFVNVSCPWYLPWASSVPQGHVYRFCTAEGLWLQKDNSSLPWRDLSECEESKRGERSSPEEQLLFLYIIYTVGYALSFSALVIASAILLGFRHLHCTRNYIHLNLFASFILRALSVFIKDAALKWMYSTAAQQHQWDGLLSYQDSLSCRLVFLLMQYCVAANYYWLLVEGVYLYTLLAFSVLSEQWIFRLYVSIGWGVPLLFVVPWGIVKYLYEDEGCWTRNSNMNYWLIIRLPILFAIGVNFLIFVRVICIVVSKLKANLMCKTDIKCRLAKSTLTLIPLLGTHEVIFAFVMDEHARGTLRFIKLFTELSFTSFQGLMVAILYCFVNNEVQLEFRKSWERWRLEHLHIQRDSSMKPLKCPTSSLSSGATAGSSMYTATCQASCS

Potency, inconclusive:
Cc1ccc(S(=O)(=O)/N=C(/Nc2ccc([N+](=O)[O-])cc2)c2ccccc2)cc1 10 µM [inhibitor, partial curve, poor fit], CC1(C)OC(=O)C2=C(C[C@@H](C3CCCCC3)O[C@H]2c2ccc(Cl)cc2)O1 28.2 µM [inhibitor, single point], Cc1ccc(S(=O)(=O)N/N=C/c2cccn2-c2ccc(Cl)cc2)cc1 28.2 µM [inhibitor, single point], Cc1ccccc1NS(=O)(=O)c1ccc(C(=O)N2CCCCCC2)cc1 31.6 µM [inhibitor, partial curve, poor fit], COc1ccc(C2Nc3ccccc3C(=O)N2NS(=O)(=O)c2ccc(C)cc2)cc1 (configuration not stated) 28.2 µM [inhibitor, single point], Cc1ccc(NS(=O)(=O)c2cccc(C(=O)N3CCCC(C)C3)c2)cc1 (configuration not stated) 7.08 µM [inhibitor, partial curve, poor fit], O=C1N[C@@H](c2ccccc2)COC(=O)[C@H](Cc2ccc(F)cc2)CC/C=C/C[C@@H]1CC(=O)N(CCO)Cc1ccccc1 22.4 µM [inhibitor, partial curve, poor fit], COc1ccc(OC)c(CCNC(=O)c2cc3c(-c4ccccc4F)nn(C)c3s2)c1 11.2 µM [inhibitor, single point], COC(=O)c1sc(-c2ccc(Cl)cc2)cc1NC(=O)/C=C/C(=O)O 10 µM [inhibitor, partial curve, poor fit], O=C(NCCN1CCN(c2ccc([N+](=O)[O-])cc2)CC1)NCc1ccccc1 10 µM [inhibitor, partial curve], O=C1c2c(-c3ccc(Br)cc3)noc2CCN1Cc1cn(-c2ccc(Cl)cc2)nn1 3.98 µM [inhibitor, partial curve, poor fit], Cc1cccnc1C(c1ccc(F)cc1)N(C)C(=O)C1CCN(CCOc2ccc(Cl)cc2Cl)CC1 (configuration not stated) 14.1 µM [inhibitor, partial curve, poor fit], O=C(COc1ccc(Cl)cc1Br)Nc1ccccc1N1CCCC1 28.2 µM [inhibitor, single point], CC(C)(C)c1cc(CCC(=O)N2CCCC2)cc(C(C)(C)C)c1O 14.1 µM [inhibitor, single point], CCOC(=O)[C@]12CCCC=C1N(CCC1=CCCCC1)C(=O)[C@H](CC(=O)NCc1ccc(OC)c(OC)c1)C2 12.6 µM [inhibitor, single point], Cc1ccccc1Cc1c(C)nc2nc(SCC(=O)NCCCN3CCCC3)nn2c1C 10 µM [inhibitor, single point], O=C(NCc1csc(-c2cccs2)n1)Nc1cccc(Cl)c1 8.91 µM [inhibitor, partial curve, poor fit], Cc1cccc(NC(=O)Cn2cc(S(=O)(=O)c3ccc(F)cc3)c(=O)c3cc4c(cc32)OCO4)c1 2.82 µM [inhibitor, full curve], CC(C)N(CCNC(=O)c1ccc(CS(=O)(=O)c2c(Cl)cccc2Cl)o1)Cc1ccccc1 11.2 µM [inhibitor, single point], Cc1cccc(NC(=O)CSCC(=O)Nc2ccc(S(=O)(=O)N3CCCCC3)cc2)c1 28.2 µM [inhibitor, single point], CCc1cc(C(=O)Nc2cnn(Cc3ccc(F)cc3)c2)no1 28.2 µM [inhibitor, single point], COc1cc(NC(=O)CSCC(=O)Nc2cc(OC)cc(OC)c2)cc(OC)c1 5.01 µM [inhibitor, partial curve, poor fit], O=C(Cn1c(-c2cccs2)cc2cc(Cl)ccc21)NCc1ccccc1 17.8 µM [inhibitor, single point], CCc1cccc(NC(=O)C2CCCN2S(=O)(=O)c2ccccc2C(F)(F)F)c1 (configuration not stated) 10 µM [inhibitor, partial curve, poor fit], CCC(OC(=O)C1=Cc2ccccc2OC1)C(=O)NC1CCCC1 (configuration not stated) 28.2 µM [inhibitor, single point], CSc1ncccc1C(=O)Nc1nc(C(C)(C)C)cs1 10 µM [inhibitor, single point], O=S(=O)(c1ccc(NC(=S)NCc2ccco2)cc1)N1CCCCC1 11.2 µM [inhibitor, single point], CC1=C(C(=O)Nc2cc(C(=O)N3CCN(c4cccc(C)c4C)CC3)ccc2C)SCCO1 10 µM [inhibitor, partial curve, poor fit], Cc1c(NC(=O)c2cc(-c3cccs3)nc3ccccc23)c(=O)n(-c2ccccc2)n1C 8.91 µM [inhibitor, partial curve, poor fit], COc1ccc(Cc2c(-c3ccc(F)cc3)nc3c4ccccc4ccn23)c(C)c1 28.2 µM [inhibitor, single point], CCCCn1c(N)c(N(CCOC)C(=O)c2cccc(S(=O)(=O)N3CCCCC3)c2)c(=O)[nH]c1=O 17.8 µM [inhibitor, single point], CC(C)c1ccccc1OCCNC(=O)c1cncc(Br)c1 10 µM [inhibitor, partial curve, poor fit], Cc1cccc(NC(=S)NCCN(C2CCCCC2)C2CCCC2)c1 20 µM [inhibitor, single point], C/C(=N\NC(=O)c1cc(C)nc2ccccc12)c1ccccn1 2.24 µM [inhibitor, full curve, poor fit]

Activity change, negative = inhibition, inactive:
Clc1ccc2nc(CN3CCCCC3)cn2c1 1.56%, CCCNC(=O)C(Cc1cccc(Cl)c1)NC(=O)c1ccccc1 (configuration not stated) 18.9%, CC(C)(C)OC(=O)N[C@H](C(=O)OC(C)(C)C)c1ccc2ccccc2c1 5.09%

Source: PubChem BioAssay AID624417 (National Center for Advancing Translational Sciences (NCATS), 2012)
